Reference: article PMC10726135
Some of the results follow. At the low end of the ranking the order means little. Measured with an extract: partners may take part in the binding.

target: T1, HNF4alpha2 (COS-7 nuclear extract) (UniProt P41235); test: protein-binding microarray; settings: COS-7 nuclear extract on double-stranded Agilent 4x180k PBM; binding buffer, salt, pH and temperature not given; high values mean tight binding; double strand, one strand shown; sequences stand for … in …GCCTAGGGAGATTAGAGTATCGGTCGA
T1 sequence: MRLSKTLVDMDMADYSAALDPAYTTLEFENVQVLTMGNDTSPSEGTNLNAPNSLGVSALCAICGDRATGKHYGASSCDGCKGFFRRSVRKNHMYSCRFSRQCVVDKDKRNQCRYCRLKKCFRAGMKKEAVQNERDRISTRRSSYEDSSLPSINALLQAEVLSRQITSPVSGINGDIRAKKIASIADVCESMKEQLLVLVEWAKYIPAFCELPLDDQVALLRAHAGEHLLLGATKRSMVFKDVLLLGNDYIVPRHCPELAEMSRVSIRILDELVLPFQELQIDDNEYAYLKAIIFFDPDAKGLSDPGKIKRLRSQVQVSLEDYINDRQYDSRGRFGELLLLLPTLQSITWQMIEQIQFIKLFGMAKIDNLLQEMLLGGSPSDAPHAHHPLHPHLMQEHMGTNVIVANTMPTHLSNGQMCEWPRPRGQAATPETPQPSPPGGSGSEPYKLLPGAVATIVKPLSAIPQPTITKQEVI

| Sequence | binding signal (log2 normalized intensity) |
| --- | --- |
| TAAGTTGGTTTACTTATGTCTCCAGAAACC | -0.431 |
| GAGGGCTGCCAAAGCTCACAGATGTGGAAT | -1.11 |
| CCCTCTCCTCCCTCGGCCGGCCCGGCAGCC | 0.806 |
| TGTTTATCTGCTGCCCTTCCCTCCACTATT | 2.96 |
| TTGCATGAAGCACAAAGGTTACTTGCTCCT | 1.79 |
| CAGCTTGGAATGTCAGGAACAACTTCGGGA | -1.01 |
| TATGTACACTTGCCCTCTCACCAGAAGGGC | 1.07 |
| AAGGAAATCTCTTTTGTTTTTCTTCAAGGA | 1.1 |
| TTATGGAGGAATTTGGACTTTTACTCTTAG | 3.61 |
| GATGGACCAAAGGTCTTGTACAAAGGTCCT | 3.11 |
| AGCAGGTCAATAGGGCAGGGGGGAGATGAA | 0.231 |
| CGCAATGCATAGCAGAAACATAGAAAGGAG | -1.15 |
| ATGGCACCCTTTTGTCAGGAAGTTCCCACA | -0.433 |
| GACCTCAGGGGTCATCAGATAGATGGTCAG | 2.53 |
| GGACAAAGTTCGTGGAAAGTGGAAGAATGG | 1.06 |
| CTCACCCTAAGCCCTGCTCAGGGAATGTGG | -0.853 |
| CGCGGAGCGGGGGACCGAGAGCCGCCGCCG | -1.19 |
| GGTGAAGATTGGAAATGAATTGATAAACAC | -1.25 |
| AAGTAGGGGCTGCTGGCATCTCATTACTGA | -1.14 |
| CATCAGCCCTCCTAGCAAACAATGAGGACG | -1.16 |
| AAGTCCCACGGCAACCTTCCTGGAAACCTT | -1.2 |
| GCACCCCACCAAGGACTGGACCACCTCCTC | 0.82 |
| TTCCACTCTACCGTCCTCCCCCACGACAGA | 5.15 |
| CCATTCTCAGGCAGATGGGCAGCACTGTGA | -1.11 |
| GTAAGCCTGGTATTAATGAGGCAAAGGTCA | 4.94 |

| Sequence | binding signal (log2 normalized intensity) |
| --- | --- |
| ATAGCAAAAGTGACCTTTGCTCCAGTTCCC | 7.8 |
| TGGCTCGACAACGATTTGGGAAATGAAGGG | -1.1 |
| GAGAAGCCTGAAATGAGTTTCATTAGACAG | -1.04 |
| GCTCACTGCACCTTGACCTCCTGGGCCCAA | 3.68 |
| CAAAGTCAGGTCAGTAGCCCAGGGTCACAC | 1.71 |
| GGACTTGATCCATTCTACCCCTGTGGTTGA | 2.25 |
| AAACACACCCTTGGGGCTGATGTGCACAGT | -0.887 |
| ACACGAGCTGTGCGCTTAGTCCATGACGCA | -1.15 |
| AGACTTAGGATCTAGCAAATTTGGGAGGGA | -1.17 |
| GTCAGTCTGATTGGTTGGAGAAAGCAGCCA | 0.0772 |
| TTTAAAATGTTTCAAAGTTTTTCCCCTTGG | 2.21 |
| GTAGGAGCGGGCTTAACTAGGAGCCTGCAC | -1.04 |
| CTTTGAGTCCCAATCCCCCATCTATTTACA | 3.09 |
| CTTGGGGGAGGAGGGCAACCTTTGAACTGG | 5.3 |
| TCCAGAAACCAACCTTTGATCATTCCTGCA | 4.17 |
| ATGGAGGCATCATAAACTCCAACTCAGCCC | -1.01 |
| TCCTAGCCACCATGCTCGGCTGCCTCTCCA | -1.12 |
| GGAAGCTGGGCACAAATTGGAGAGCATCTT | -1.06 |
| CAGCATGTCTTCTGACCTTTGGCAATATCT | 4.37 |
| TGGTAGGGGGGTGTTATCTCTGATGCCCTT | 2.69 |
| TTTTTCACTGCTCACAGGTTGTACTATGAC | 2.34 |
| TCGCTGCCTGCCCCTCTGACCTCTCCTCCT | 3.87 |
| GGTGGCTTTTGCTGACATGCTCTTGGAATG | 1.02 |
| ACTGGTTTTTCAGATCCCTCTGGTGCTGAT | 0.627 |
| CTCTGCAGACTGGTGCTATGTCCCTGACTG | 0.386 |

| Sequence | binding signal (log2 normalized intensity) |
| --- | --- |
| ACAAAGCTCTGCATCCTTCCCTAAGCAGCT | -1.08 |
| TGTTTTTATTTCCCCTTTCTGTTGGAAGCT | 0.983 |
| CCAAGACTCGCGATAACCCTCTGGGGCCGG | -1.06 |
| GCAGCTCTGCGTCTTACTAAATGCAGCCTT | -1.05 |
| ACACGCATGGCCGGCAGCAGCCTTGCCTTT | -1.11 |
| GGACTTGAGGTCTTATCTTTAGGCCAAACA | 1 |
| ACAAAGAAAGCCAAAGTTCACCCTTTCGCC | 1.79 |
| CTGCCCTTTGAAGCATGTGATCTACTCCCT | 1.49 |
| AGTGTGAGTGTCAGAGGCTAAACCTAGCCC | -1.25 |
| ACACTTCCCAAGCATGTTTGGTGACCCGTG | 3.19 |
| AGGTCTCGAGGCCTCTTTATCTCCTCCCCT | 3.36 |
| TTGCCAGTTCCCATTTGCGCTGGTTTTATG | 1.82 |
| TTTAAGGTCACATGCCTAGGTAAGCCCACT | -1.06 |
| AGCTGGTTTGAAGAATGTGGTCTGGTCATG | 1.77 |
| AGCTATTGCGAGGTTCCATGGTGTAATGGT | 2.06 |
| CTTGCAATGAGGCGACATCAAAGCATTTGG | -0.0948 |
| TTGGTAATCCTGCTCCTTCTGAATCTGTTC | 1.46 |
| AGTAGCTAGGAGACAACTTAGAATTTCATT | -1.24 |
| AGGACAGACTTTGGACCTGGCCCTCTGGGT | 4.18 |
| GGCCACCTTTGGCCGAAACTCAGTGATTGG | 1.15 |
| AGGGTCACAAGGATCCCATTCATGTGGGTC | 0.754 |
| AACTCCCCCTGCCCCCAGGTAGAGAGCAAT | 4.21 |
| CAGCATTCCATTCATTTTAGACATAACAGT | 1.72 |
| TGAAGGGCAGGGTTGGCTGTGGCAATTCCT | -1.29 |
| TCCAAAAAGAATCAGTTACAAGTTAATTTC | -1.05 |

| Sequence | binding signal (log2 normalized intensity) |
| --- | --- |
| CCTGATGGGATGAGAGAGCCCCTGTGATAC | 1.53 |
| CTCCCAAATCTTCTTTAAGCTATGTGGTGG | 1.68 |
| CACACAGACTTGGGTTCAAAGAGCACATTC | 3.21 |
| CTGAGCATACAGAACCCATGCTCTTTGGCC | 2.78 |
| CCCCCAGCCTCTCACAGTAGCCCAGGTCCT | 2.24 |
| AGGAGAAGGGCCCATGGGCTTCAGGGTAAA | -1.09 |
| AAAAAACCCTAGAGATGTACACAGTTCAAA | -0.874 |
| CTTCACCTCCCCTAGACTTACTATTATGCC | 1.3 |
| CCTAGCCCCACCAAACTGACAGGTTAGACT | 2.22 |
| AATTGTGAAACTCAGAATCAGGGGATTCTG | -0.838 |
| CAAGGTTCCCAGCTAAATAAATAACTCTAA | -1.17 |
| CTCCAAACATCTTTGGTATGGACTGATATT | 1.5 |
| TAGGGCAGGGGGGAGATGAAATCTGGAGCT | -1.21 |
| GTGGGATCCAACCAGAGGGAAGAGATCATG | -0.919 |
| TGACACACACCTCCAGCCACCCTGAAGGCT | -1.15 |
| CCCCTCTGACCTCTCCTCCTACCTTCTCCC | 2.71 |
| TCTTTGCCCTCTTGGTATCAGCTTTGAGAC | 1.42 |
| CAAACATTTATTTTGTGTGCTAGATACTGG | 1.3 |
| GTCAGGAACAAAGGTCACAGCACTGTTTAT | 3.63 |
| TAATTAACTCCCCCTGCCCCCAGGTAGAGA | 5.67 |
| CCTTTCCCCGCCCCGCGTCCGTGCACCCTT | 4.42 |
| GCCTTGCTGAGGAATTTGGACTTCAGCCCA | 6.11 |
| GCATCAACTCTATCATACTCAGCTAATCTA | -1.08 |
| ACAGCTGACAAGCAGAACCCAGGGTCACAA | -1.15 |
| AGGTGTAACCTGCTCTCTCATGCCCTTTGC | 4.31 |

| Sequence | binding signal (log2 normalized intensity) |
| --- | --- |
| GTTCAGAGGGCATGTTGAGTGGAATATGAG | 1.45 |
| TCCCTCCCCCATTAGAGGCACACTCTATTA | 3.27 |
| CGAGAGAGACCTGTTCTGTTCCCTGGACTC | 2.88 |
| TTTGTTCACTTGTTTATCTGCTGCCCTTCC | 2.78 |
| GAACTCTTCATGGACTCCTCTTATCTTCAG | 1.04 |
| CTAGAAAGAATGAGAAGGGCTAATATTTGC | -0.992 |
| ACTGCCATTGATAATTCAGTTTCATTGCAC | 0.91 |
| TCAGGTTCCCCAGTGAGGATGTGTGCTCGA | 1.59 |
| AGACAGAAAACAAACATTAGCTGCAGATTC | -1.01 |
| GCTTGACCCATTATGGCCACTGTGTGTGTG | 2.14 |
| ATGGGACATTGCATTCCACCCTGGCAGAGG | -1.13 |
| GTACACAGGAATATCAACAGGAGCAAATAT | -1.09 |
| ACTGATTCTCAGGCATCTCTGGGGGTCAGA | 2.8 |
| ATATTCAGACGCATGACCTCAACTCTCAGT | -0.151 |
| TCATTTTGATCTTTGTGTACAAAGCCATCA | 1.2 |
| ACGCCCTGCACCCTACGTAAATGCACGGAA | -0.956 |
| AAATTATTACTCCCACCGTGTGTGCACTTT | 3.33 |
| ATTCCTATCGCCCTTCTGTCAAGTCCAAAG | -0.648 |
| TTGCTCAACCCAAAGCATGTCCAGAATCCT | 0.853 |
| GGCCCTGCAGACTTTGCCTCAGTAAATGCA | -0.96 |
| TGGGAACCGACCTTTGGTTCCTGAACTCAA | 4.29 |
| AAGGCATGGGACCTTTGCCCTTCTTGTTAA | 4.4 |
| GTTACGAGTGGGAGTTAGGGAAAAGATAAG | -1.13 |
| ACACTTTCTGACCTTTAAGCACCCAGAGCC | 2.1 |
| TAAAGGTCAAAACCACCTATTCTGAAGATT | -1.01 |

| Sequence | binding signal (log2 normalized intensity) |
| --- | --- |
| TTCCAGGCTTGTACCTTGACCTTCTCTGTT | 5.58 |
| AGATGTGAACACTGAGGCTCAATGAGGTCA | 1.54 |
| GAGGAGAGTACTGTCTCTTATCAGCCATCT | -1.15 |
| CAAGAGAGGTCACAACAGAAAGCAAGAGCA | -1.05 |
| CCCGGGCACAGGGTTGAGTGGTGACTGAAG | -1.06 |
| GTCCCAGGGCAAAGGTCACCAGCTAAGCTG | 5.83 |
| ACCTCTGGTCATTCAATGTTTGGGAGCCTT | 1.45 |
| TGTCGGTATAAGTTCTACATTCCCAAGGTT | 0.442 |
| CTTCCTTTATTCACTTCTCAAAGGACAGAT | 2.17 |
| AGGAGATATGCACTTGCCCTTTGGTAATCC | 3.23 |
| GACTCTGTCCTGGGCACTGTCCTAGGTGCT | -1 |
| TATTCTTTAACCAGAGTCTACAGGTCAGAC | 1.29 |
| TGCCACAGGTATTTCTGTTGTTGATTTAAC | 1.19 |
| TATCTCAACTGATTTACCTCTGACCACTCT | 0.588 |
| CTCCCCCACGACAGAATTGACTCTTCGTTT | 2.49 |
| TCTTGTAGGTTTTTTTTTTTTTTAACGGTC | 2.91 |
| CTCCAGGAGCAATCATCGCACCTAAGGGCA | -1.18 |
| TTGTACTGCTTCCAAAACATTGTAGAATTA | 0.955 |
| CCGACTCCTGGGTGTGAGATAAGGCCGCTG | -1.1 |
| GTGTCATTGTTATTTACGGTGGGCACCTCA | 0.318 |
